Measurements published in PubChem BioAssay AID2546 (National Center for Advancing Translational Sciences (NCATS), 2010).
Among all 310,000 compounds or so, about 11,000 (3.5%) were called active. Inconclusive means that the source gave no clear call. Such entries were picked first, then a sample of the others. Calls come from the whole dose curve; as a rule, active = well fitted inhibition curve with a large enough effect; inconclusive = small, poorly fitted or top-dose-only effect, or effect the other way; inactive = flat fitted curve, though single readings scatter. No potency is given beside an inconclusive call; the fits are too rough.

assay: VP16 counterscreen qHTS for inhibitors of ROR gamma transcriptional activity; conditions: Drosophila S2 Gal4-VP16 UAS-luciferase, luminescence, 20 h; activity, negative = inhibition: at 53.6 µM (top of the series);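 note: Gal4-VP16 expression switched on by copper sulfate through the metallothionein promoter; nearly all actives have a fitted effect of over 50% in size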
% is set by controls: 0 for no effect and ±100 for the full control effect; potency is the fitted concentration of half-maximal effect; tags give direction and shape of the fitted curve.

Compound	Potency	activity, negative = inhibition
N#Cc1ncc(-c2ccc3c(c2)OCCOCCOCCOCCOCCO3)nc1C#N	active: 4.47 µM	–
c1ccc(CSc2ccc(-c3cccs3)nn2)nc1	inconclusive [activator, full curve, poor fit]	–
COc1ccc(Cl)c(NC(=O)C/C(C)=N/NC(=O)CCc2ccccc2)c1	–	inactive: 1.34%
CNC(=S)N/N=C(\C)c1ccc(C(C)(C)C)cc1	active: 0.891 µM	–
Cc1nn(-c2ccccc2)c(Cl)c1C(=O)Nc1nnc(C2CCCC2)s1	inconclusive [inhibitor, single point]	–
S=C(NCCc1ccccn1)Nc1cc(Cl)cc(Cl)c1	inconclusive [inhibitor, single point]	–
O=C(N/N=C/c1sc2ccccc2c1O)c1ccccc1	active: 1.58 µM	–
CC(C)CN1C(=O)c2ccccc2C1(O)Cc1ccccc1 (stereo unspecified)	active: 20 µM	–
Cc1ncc([N+](=O)[O-])n1CC(=O)NCCc1ccccc1	–	inactive: -2.51%
Cc1ccc(CNC(=O)[C@H](C)[C@H]2C[C@]2(C)[C@H](NC(=O)OCc2ccccc2)c2ccccc2)o1	inconclusive [inhibitor, single point]	–
CCOc1ccc(C(C)NC(=S)NCc2ccc(Cl)cc2)cc1 (stereo unspecified)	active: 12.6 µM	–
COc1ccccc1CN1CCC(CNS(=O)(=O)c2cc(-c3cc(C)no3)ccc2C)CC1	–	inactive: -3.99%
Cc1c(C2CCN(CCc3ccccc3)CC2)noc1-c1ccc(Cl)cc1	inconclusive [inhibitor, single point]	–
CCOC(=O)c1c(C)[nH]c(C)c1C(=O)COC(=O)c1ccc(S(=O)(=O)N(CC)CC)cc1	–	inactive: -5.45%
CC1(C)CC(=O)C2=C(C1)NC(Nc1nc3ccccc3o1)=NC2c1ccccn1 (stereo unspecified)	active: 1.12 µM	–
CCOC(=O)C(NC(=O)c1ccccc1Cl)(Nc1sc2c(c1C(N)=O)CCC2)C(F)(F)F (stereo unspecified)	inconclusive [inhibitor, single point]	–
CCOc1ccc(-c2cc(C(=O)NN)[nH]n2)cc1	inconclusive [inhibitor, single point]	–
Cc1ccc(NC(=S)NCC(C)CSc2ccc(Cl)cc2)cc1 (stereo unspecified)	inconclusive [inhibitor, single point]	–
CN1C2CCC1CC(OC(c1ccccc1)c1ccccc1)C2 (stereo unspecified)	inactive	–
Cc1ccccc1CNC(=O)C1CCC(=O)N(C2CC2)C1 (stereo unspecified)	–	inactive: 3.99%
CSc1ccc(CCNS(=O)(=O)c2csc(C(N)=O)c2)cc1	inconclusive [inhibitor, single point]	–
NC(=O)Cc1ccc2sc(-c3ccccc3)nc2c1	inconclusive [inhibitor, single point]	–
CCc1ccc(C(=O)COC(=O)c2ccccc2OC)cc1	inconclusive [inhibitor, single point]	–
Cc1ccc(C2CC(c3cccs3)=NN2C(=O)c2ccc(Br)o2)cc1 (stereo unspecified)	inconclusive [inhibitor, full curve, poor fit]	–
Cc1cc(OCC(=O)N2CCOCC2)ccc1NC(=O)c1ccccc1C	inconclusive [inhibitor, partial curve]	–
CCOc1ccc2c(c1)nc(SCC(=O)c1ccc(Br)s1)n2C	inconclusive [inhibitor, single point]	–

Compound	Potency	activity, negative = inhibition
Cc1cc(NC(=O)/C(C#N)=C/c2ccc(-c3cccc(C(F)(F)F)c3)o2)n(-c2ccccc2)n1	inconclusive [inhibitor, single point]	–
O=C(CCc1ccccc1)Nc1ccnn1C1CCN(Cc2ncc[nH]2)CC1	–	inactive: -1.54%
COC(=O)N/N=C/c1ccc(-c2cccc(Cl)c2)o1	–	inactive: -12.5%
COc1ccc(CNC(=O)Cc2ccc(NC(=O)C3=C(C)OCCS3)cc2)cc1	inconclusive [inhibitor, single point]	–
CCOC(=O)C1=C(C)N=c2s/c(=C\c3cccn3C)c(=O)n2C1c1cccc(OC)c1OC (stereo unspecified)	inconclusive [inhibitor, single point]	–
CCOc1ccccc1NC(=O)COn1nnc2ccccc21	inconclusive [activator, single point]	–
Cc1cccc(NC(=S)NNC(=O)CCn2cc(C)cn2)c1	active: 1 µM	–
O=C1C2=CC[C@H]3C(=O)N(Cc4ccccc4)C(=O)[C@@H]3[C@@H]2[C@H](O)[C@@H]2O[C@H]12	inconclusive [inhibitor, single point]	–
Cc1ccc(C(=O)N/N=C/C2=Cc3ccccc3OC2C)cc1 (stereo unspecified)	inconclusive [inhibitor, single point]	–
COc1cccc(C(=O)NC(=S)Nc2ccc(N3CCCC3)cc2)c1	active: 8.91 µM	–
Cc1cccc(NC(=S)NC2CC3CCCC(C2)N3Cc2ccco2)c1 (stereo unspecified)	inconclusive [inhibitor, single point]	–
NCCC[C@@H](CC(=O)N[C@@H]1CCCC[C@H]1C(=O)N[C@H](CC(=O)N[C@@H](CCC(=O)O)CC(=O)O)Cc1c[nH]c2ccccc12)NC(=O)C[C@H](Cc1ccccc1)NC(=O)[C@@H]1CCCC[C@H]1N	–	inactive: 7.57%
O=C(N/N=C/c1cc(Br)c(Br)o1)c1cc2ccccc2o1	active: 6.31 µM	–
O=C(Nc1ccc(N2CCOCC2)cc1)c1ccncc1	–	inactive: -13.4%
O=[N+]([O-])c1ccc(C(O)CSC(=S)N2CCCCC2)cc1 (stereo unspecified)	–	inactive: 4.13%
Cc1ccc(-c2cn3cccc(C)c3n2)cc1	–	inactive: -44.2%
Cc1ccc(Cl)cc1N1CCN(C(=O)COc2ccc(S(=O)(=O)NC(C)C)cc2)CC1	inconclusive [inhibitor, single point]	–
Fc1ccc(-n2nnc(-c3nccs3)n2)cc1	inconclusive [inhibitor, single point]	–
O=C(NCc1ccc2c(c1)OCO2)c1cc([N+](=O)[O-])ccc1N1CCCCC1	–	inactive: -4.51%
Cc1ccc(CN(Cc2cccnc2)C(=S)Nc2cccc(Cl)c2C)cc1	inconclusive [inhibitor, single point]	–
CCC(Oc1ccccc1)C(=O)Nc1ccsc1C(=O)OC (stereo unspecified)	inconclusive [inhibitor, single point]	–
Cc1ccc(CNC(=O)c2cc3c(C)nc4ccccc4c3o2)cc1	active: 17.8 µM	–
CC1=C(C(=O)c2ccccc2)C(c2ccc(O)cc2)NC(=S)N1 (stereo unspecified)	–	inactive: 8.62%
O=C(c1ccccc1)c1nc[nH]c1C(=O)Nc1ccccc1	active: 1.58 µM	–
Cc1ccc(Cl)cc1N1CCN(C(=O)c2cccc3c(=O)c(C)c(-c4ccccc4)oc23)CC1	inconclusive [inhibitor, single point]	–
CC1Cc2ccccc2N1C(=S)NC(=O)c1ccco1 (stereo unspecified)	active: 3.98 µM	–

Compound	Potency	activity, negative = inhibition
CNC(=S)N/N=C/c1ccccc1Cl	active: 5.62 µM	–
COc1ccc(C2C(O)C(c3c[nH]c4ccccc34)=NN2C(=O)CCl)cc1 (stereo unspecified)	active: 10 µM	–
CCCCCC(O)(c1ccccc1)C(CN1CCOCC1)c1ccccc1 (stereo unspecified)	inconclusive [inhibitor, single point]	–
O=C(NC(=S)Nc1cc([N+](=O)[O-])ccc1O)c1cccnc1	active: 12.6 µM	–
O=C(NC1CCCCC1)c1cccc(S(=O)(=O)N2CCOCC2)c1	inconclusive [activator, single point]	–
Cc1onc(-c2ccccc2)c1C(=O)N/N=C/C=C/c1ccccc1	active: 3.16 µM	–
Cc1ccc(C(C(=O)NC2CCCCC2)N2CCC3(CC2)OCCO3)cc1 (stereo unspecified)	–	inactive: 6.2%
CC(C)(C)c1ccc(C(=O)N2CCCN(c3ccc([N+](=O)[O-])cn3)CC2)cc1	–	inactive: -0.828%
CCC(C)(C)C(=O)Nc1nnc(CCc2ccccc2)s1	inconclusive [activator, single point]	–
CC(C)c1ccc(NC(=S)N2CCN(Cc3ccccc3)CC2)cc1	inconclusive [inhibitor, single point]	–
Cc1ccnc(NC(=O)c2ccc(Br)s2)c1	inconclusive [inhibitor, single point]	–
O=C(/C=C/c1cccc(F)c1)N1CCc2ccccc21	inconclusive [inhibitor, single point]	–
COc1ccc2c(c1)[nH]c1c(N3CCN(Cc4ccc5c(c4)OCO5)CC3)ncnc12	active: 10 µM	–
O=C(COc1ccc2ccccc2c1)N1c2ccccc2Sc2ccccc21	–	inactive: 0.415%
Cc1cc(-c2n[nH]c(=S)n2Cc2ccccc2)cs1	inconclusive [inhibitor, partial curve]	–
CCOc1cc(/C=C/c2cc(C(=O)O)c3ccccc3n2)ccc1OC	inconclusive [inhibitor, single point]	–
O=C(NCCN1C(=O)S/C(=C\c2cccnc2)C1=O)C1=NN(c2ccccc2)C(=O)CC1	–	inactive: 4.06%
Cc1sc(N)c(C(=O)c2cccc(C(F)(F)F)c2)c1C	–	inactive: 17.4%
C/C(CC(=O)Nc1ccc2c(c1)OCCO2)=N\NC(=O)c1ccccc1Cl	–	inactive: 28.8%
Cc1c(O)ccc2c3c(c(=O)oc12)CCC(C)C3 (stereo unspecified)	inconclusive [inhibitor, single point]	–
Cc1cccc(N(CC(=O)NC2CCCC2)C(=O)c2cc3cc4cccc(C)c4nc3s2)c1C	–	inactive: -9.16%
Cc1cccc(C)c1NC(=S)N/N=C1\CC2CC=CC12 (stereo unspecified)	inconclusive [inhibitor, single point]	–
O=C(Nc1ccccc1O)c1c(O)c2c([nH]c1=O)CCCC2	inconclusive [inhibitor, partial curve]	–
OC(C#Cc1ccccn1)c1cccs1 (stereo unspecified)	active: 4.47 µM	–
